Measured values as given in PubChem BioAssay AID463173 (ICCB-Longwood Screening Facility, Harvard Medical School, 2010).
About 1,700 (3.3%) of roughly 52,000 compounds were called active. Rule as the data show it: active = survival mostly below about 52% (no sharp cut-off); inactive = mostly above about 56%. The list shows a part of the results.

What follows are compounds tested on Wild type (assay: S. aureus survival, RN4220 and DeltatarO strains – OD600, teichoic acid synthesis inhibitors, primary screen (AID 463173)). Settings: S. aureus RN4220 wild type/DeltatarO growth, OD600, 18 h, active compounds read low, screened at 18.75 µg/mL (by protocol).

| SMILES | survival |
| --- | --- |
| CC1CCCC(NS(=O)(=O)c2cccs2)C1C (stereo not given) | inactive: 134% |
| COCc1cc(C)nc2sc(C(=O)Nc3ccc(OC(F)(F)F)cc3)c(N)c12 | inactive: 88% |
| COc1ccc(C)cc1NC(=O)Cn1c(=O)nc(-c2ccccc2F)c2cc(Cl)ccc21 | inactive: 82% |
| COC(=O)c1cc(NC(=O)C2CCCN(S(=O)(=O)c3c(C)n[nH]c3C)C2)cc(C(=O)OC)c1 (stereo not given) | inactive: 141% |
| Cc1c(C(=O)OCC2CCCCC2)[nH]c2c1C(=O)CC(c1ccc(F)cc1)C2 (stereo not given) | inactive: 134% |
| O=C(CSc1nncn2c1cc1occc12)Nc1ccccc1C(F)(F)F | inactive: 89% |
| CCc1ccccc1NC(=O)CN(c1cccc(C)c1C)S(C)(=O)=O | inactive: 72% |
| CCOC(=O)C1CCCN(S(=O)(=O)c2ccc3c(c2)CCN3C(=O)CC)C1 (stereo not given) | inactive: 84% |
| Cc1cccc2sc(N3CCN(C(=O)CS(=O)(=O)c4ccc(F)cc4)CC3)nc12 | inactive: 73% |
| N#Cc1cccc(Nc2ncnc3c2cnn3-c2cccc(Cl)c2)c1 | inactive: 81% |
| Cc1ccc(Cl)cc1-n1ncc2c(NC3CCCCC3)ncnc21 | inactive: 53% |
| CCOC(=O)c1c(C)[nH]c(CCC(=O)Nc2c(Cl)cc(OC)cc2OC)c1C | inactive: 72% |
| Cc1ccc(C(=O)O)cc1-n1c(C)ccc1-c1ccccc1 | inactive: 64% |
| CCc1ccc(S(=O)(=O)c2cnc3ccc(OC)cc3c2N2CCCC(C)C2)cc1 (stereo not given) | active: 2% |
| Cc1cc(C(=O)N2CCN(c3ccc(F)cc3)CC2)c2c(C)nn(-c3cccc(Cl)c3C)c2n1 | inactive: 133% |
| COc1cc(OC)c2c(C)c(CC(=O)NCCc3ccccc3OC)c(=O)oc2c1 | inactive: 85% |
| CCCc1nc2nc(C)c(NS(=O)(=O)c3ccc(F)cc3)c(=O)n2[nH]1 | inactive: 80% |
| COc1ccc(CNC(=O)Cn2c(=O)nc(-c3ccccc3F)c3cc(Cl)ccc32)cc1OC | inactive: 127% |
| N#CC1=C(N)Oc2c(c(=O)oc3ccccc23)C12C(=O)Nc1ccccc12 (stereo not given) | inactive: 120% |
| Cc1nnc(NCc2ccccc2)c2ccccc12 | inactive: 103% |
| COC(=O)c1cccc(Nc2c(-c3ccc(OC)cc3)nc3nc[nH]n23)c1 | inactive: 75% |
| Cc1ccc(C)c(NC(=O)Cn2nnc(C(=O)NCCc3ccccc3)c2N)c1 | inactive: 79% |
| CCOC(=O)c1ccc(NC(=O)C(CC)Sc2nnc3c4ccccc4n(C)c3n2)cc1 (stereo not given) | inactive: 130% |

| SMILES | survival |
| --- | --- |
| O=S1(=O)C=C(Sc2nc3ccccc3s2)c2ccccc21 | active: 0% |
| Cc1cc(C)c(NC(=O)Cn2c(=O)n(Cc3ccc4c(c3)OCO4)c(=O)c3ccccc32)c(C)c1 | inactive: 98% |
| CCC1=Nc2cc(C(=O)NCc3ccccc3Cl)ccc2Sc2ccc(C)cc21 | inactive: 97% |
| CC1CCc2[nH]nc(C(=O)O)c2C1 (stereo not given) | inactive: 114% |
| COc1ccc(NC(=O)CSC2=Nc3ccccc3C3=NC(CCC(=O)NC4CCCCC4)C(=O)N23)cc1Cl (stereo not given) | inactive: 78% |
| COc1ccc(-c2noc(-c3nnn(-c4ccc(C)cc4C)c3C)n2)cc1 | inactive: 127% |
| COc1ccc(S(=O)(=O)c2cn(C)c3cc(N4CCCCCC4)c(F)cc3c2=O)cc1 | inactive: 91% |
| Cc1ccc(-n2nc(CO)c(C(=O)NCc3cccnc3)n2)cc1C | inactive: 111% |
| CCN(CC)C(NC(=O)c1ccccc1)C(=O)c1ccccc1 (stereo not given) | inactive: 106% |
| CCOc1ccccc1CNS(=O)(=O)c1ccc(-c2cnc(C3CC3)o2)cc1 | inactive: 70% |
| CCOC(=O)c1cc(NC(=O)c2ccccc2)c(=O)n2c1oc1ccc(Cl)cc12 | inactive: 134% |
| Cc1ccc(NC(=O)CSc2nncn2C)c(C)c1 | inactive: 75% |
| O=C(Nc1cc(F)ccc1F)C1CCN(C(=O)c2cnn(-c3ccccc3)c2-n2cccc2)CC1 | inactive: 72% |
| CC1CC(C)CN(C(=O)c2ccc(Cl)cc2)C1 (stereo not given) | inactive: 117% |
| COc1ccc(Cl)c2sc(NC(=O)c3ccc(S(=O)(=O)N4CCCC4)cc3)nc12 | inactive: 73% |
| COc1ccc(OC)c(C2CC(=O)Nc3c2c(=O)n(C)c2ncnn32)c1 (stereo not given) | inactive: 142% |
| COc1ccccc1NC(=O)CSCc1cc(=O)c2cccc(Cl)c2[nH]1 | inactive: 67% |
| COc1ccccc1Cn1c(C2CC(=O)N(c3ccccc3OC)C2)nc2ccccc21 (stereo not given) | inactive: 75% |
| O=C(CSC1=Nc2ccccc2C2=NC(Cc3ccccc3)C(=O)N12)Nc1cccc(Cl)c1 (stereo not given) | inactive: 76% |
| CCOC(=O)c1c(-c2ccccc2)oc2ccc(NS(=O)(=O)c3ccc(C)cc3)cc12 | inactive: 28% |
| CCN1C(=O)c2ccccc2Sc2ccc(NC(=O)Nc3cc(C)cc(C)c3)cc21 | inactive: 62% |
| CCc1ccc2occ(CC(=O)Nc3c(C(=O)c4ccccc4)oc4ccccc34)c2c1 | inactive: 104% |
| Cc1ccc(CNC(=O)c2cc3sc(Cl)cc3n2C)cc1 | inactive: 89% |

| SMILES | survival |
| --- | --- |
| Cc1ccnc(NC(c2cccc(O)c2)c2ccc3ccc(C)nc3c2O)c1 (stereo not given) | inactive: 74% |
| COc1ccc(CN(CCN)C2CC(C)N(C)CC2C)cc1 (stereo not given) | inactive: 105% |
| O=S(=O)(Nc1ccc2nc[nH]c2c1)c1ccccc1 | inactive: 103% |
| O=C(Cn1c(=O)n(-c2ccccc2)c(=O)c2c3c(sc21)CCC3)c1ccc(Br)cc1 | inactive: 87% |
| Cc1ccc2nc(-c3ccc(Cl)c(NC(=O)COc4ccc([N+](=O)[O-])cc4)c3)oc2c1 | inactive: 60% |
| Cc1ccc(C(C)C)cc1S(=O)(=O)Nc1ccccn1 | inactive: 95% |
| CCOC(=O)c1c(C)oc2ccc(N(C(=O)c3ccncc3)S(=O)(=O)c3ccc(F)cc3C)cc12 | inactive: 95% |
| COc1cccc(NC(=O)c2cnc(SCC(=O)N3CCCc4ccccc43)n(C)c2=O)c1 | inactive: 54% |
| COc1ccccc1N1CCN(S(=O)(=O)c2cc(C(=O)Nc3ccc(Oc4ccccc4)cc3)ccc2F)CC1 | inactive: 75% |
| CC(C)CCNC(=O)CCCn1c(=O)c2cccn2c2ccccc21 | inactive: 80% |
| Cc1cccc(CS(=O)(=O)Cc2ccc(C(=O)NCc3ccc(F)cc3)o2)c1 | inactive: 88% |
| CCOc1cc(S(=O)(=O)NC2CC2)c(OCC)cc1-n1cnnn1 | inactive: 102% |
| CCCN1CC=C2C(C1)C(c1ccc(C(=O)OC)cc1)C(C#N)=C(N)C2(C#N)C#N (stereo not given) | inactive: 108% |
| Cc1noc(-c2ccc(-c3noc(-c4ccc(Cl)cc4)n3)cc2)n1 | inactive: 87% |
| Cc1cc(C)cc(NC(=O)CN2C(=O)c3ccccc3Sc3ccc(C(=O)N4CCCC4)cc32)c1 | inactive: 71% |
| Cc1ccc(C)c(CN2CCCN(Cc3ccccc3C)S2(=O)=O)c1 | inactive: 76% |
| CC1C=CCC2C(=O)N(c3ccc(OC(=O)c4ccco4)cc3)C(=O)C12 (stereo not given) | inactive: 104% |
| COc1ccc(CCn2c(-c3ccco3)nc3ccccc3c2=O)cc1OC | inactive: 96% |
| COc1ccccc1NC(=O)CSc1nnc2c(n1)[nH]c1ccccc12 | inactive: 107% |
| O=C(CN1C(=O)CCc2cc(Br)ccc21)Nc1ccc(OC(F)(F)F)cc1 | inactive: 88% |
| CCOC(=O)c1ccc(Nc2c(-c3ccc(N(C)C)cc3)nc3nc[nH]n23)cc1 | inactive: 75% |
| COc1ccc(NC(=O)c2cnc3cc(C)ccn3c2=O)c(OC)c1 | inactive: 102% |
| COc1cccc(CNC(=O)c2nn(C)c3c2CSc2ccccc2-3)c1 | inactive: 84% |

| SMILES | survival |
| --- | --- |
| COc1ccc(Cn2c(=O)n(-c3ccc(C)cc3)c(=O)c3c2c2cc(C)ccc2n3C)cc1 | inactive: 143% |
| Cc1c(CN2CCCCC2)c(O)n(CCO)c(=O)c1C#N | inactive: 106% |
| CCN1C(=O)C2C(c3ccccc3C)NC(Cc3ccc(O)cc3)(C(=O)OC)C2C1=O (stereo not given) | inactive: 110% |
| CC(Oc1ccccc1)C(=O)NCc1ccccn1 (stereo not given) | inactive: 108% |
| COc1ccccc1Cc1nc2ccccc2nc1SCC(=O)NCc1ccc(C)cc1 | inactive: 73% |
| COc1ccc(C)cc1NC(=O)Cn1nc(N2CCN(c3ccccc3OC)CC2)ccc1=O | inactive: 83% |
| Cc1noc(C)c1S(=O)(=O)N(CC(=O)NCc1ccccc1)c1ccc(C(C)C)cc1 | inactive: 83% |
| COc1ccccc1CNC(=O)C(=O)NCC(c1cccnc1)N1CCN(c2ccccc2)CC1 (stereo not given) | inactive: 77% |
| COc1ccc(-c2nc(SCC(=O)NC3CCCC3)c(-c3ccc(F)cc3)[nH]2)cc1OC | inactive: 68% |
| O=C(COCc1cc(-c2ccco2)on1)Nc1cc(Cl)ccc1O | active: -2% |
| O=C(Nc1ccc2oc(-c3cccnc3)nc2c1)c1ccccc1F | inactive: 86% |
| CC(C)c1nc2ccccc2c(=O)[nH]1 | inactive: 98% |
| CC(=O)N1CCCc2cc(S(=O)(=O)Nc3ccc(Cl)cc3F)ccc21 | inactive: 63% |
| COCCNC(=O)CCn1nc(-c2ccc(Cl)cc2)c2ccccc2c1=O | inactive: 90% |
| COc1ccc(CC(=O)N2CCc3c([nH]c4ccccc34)C2c2ccc(SC)cc2)cc1 (stereo not given) | inactive: 71% |
| CC1CCN(C(c2ccc(F)cc2)c2sc3nc(-c4ccco4)nn3c2O)CC1 (stereo not given) | inactive: 63% |
| COc1ccc(C(=O)N2CCN(C(=O)COc3ccccc3)CC2)cc1OC | inactive: 79% |
| COc1ccc(-c2nc3ccccc3s2)cc1NC(=O)c1cc(OC)c(OC)c(OC)c1 | inactive: 82% |
| CCN(CC)c1nc(Nc2ccc(Cl)cc2)nc(OCC#N)n1 | inactive: 113% |
| COc1ccc(NC(=O)C(NC(=O)/C=C\c2ccc3c(c2)OCO3)c2ccc(C)cc2)cc1 (stereo not given) | inactive: 80% |
| CCc1ccc(-n2c(N3CCN(c4ccc(F)cc4)CC3)nc3ccccc3c2=O)cc1 | inactive: 85% |
